The text below walks through data of the supplement of paper PMC10369915.

Targets include SHP2 C-SH2 domain E139D; SHP2 N-SH2 domain L43F; SHP2 N-SH2 domain T42A; SHP2 N-SH2 domain T52S.
Common to all, as to experiment: enrichment score (SH2-bound / input frequency) (ratio); bacterial display of known human phosphotyrosine sites (pTyr-Var adds point mutants) read by sequencing; higher = stronger binding; tyrosines were phosphorylated by kinases first
Common to all, as to details: peptide library: pTyr-Var

In assay [1] the target is SHP2 C-SH2 domain wild-type.
Assay [2] deals with SHP2 N-SH2 domain wild-type.

Some of the results follow. Rule as the data show it: active = 3.2 or more and inactive = the rest. Only a few entries rise above the background.
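Also: displayed peptides selected on beads carrying the immobilized SH2 domain, with library peptides lacking any tyrosine serving as negative controls.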

Regarding GAVGHYVLAER [HFE_Y342_M339V], the enrichment score in the assay with SHP2 C-SH2 domain E139D is inactive: 0.669; in assay [1], inactive: 0.771; in the assay with SHP2 N-SH2 domain L43F it was inactive: 0.688; with SHP2 N-SH2 domain T42A, inactive: 0.631; with SHP2 N-SH2 domain T52S, inactive: 0.443; in assay [2] it was inactive: 0.845.
Regarding MGGSVYFSYPD [HIKESHI_Y55], the enrichment score with SHP2 C-SH2 domain E139D is inactive: 1.5; in assay [1], inactive: 1.6; with SHP2 N-SH2 domain L43F, inactive: 1.37; in the assay with SHP2 N-SH2 domain T42A it was inactive: 1.2; with SHP2 N-SH2 domain T52S, inactive: 1.21; in assay [2] it was inactive: 1.54.
On to TFRPPYFHRDC [HGD_Y333_N337D_YF], for which the enrichment score is inactive: 1.81 with SHP2 C-SH2 domain E139D; inactive: 1.45 in assay [1]; inactive: 1.86 in the assay with SHP2 N-SH2 domain L43F; inactive: 1.82 with SHP2 N-SH2 domain T42A; inactive: 2.05 in the assay with SHP2 N-SH2 domain T52S; inactive: 1.67 in assay [2].
Regarding FRPPFYHRDCM [HGD_Y334_N337D_YF], the enrichment score in the assay with SHP2 C-SH2 domain E139D is inactive: 2.32; in assay [1], inactive: 2.17; with SHP2 N-SH2 domain L43F it was inactive: 1.9; in the assay with SHP2 N-SH2 domain T42A, inactive: 1.96; with SHP2 N-SH2 domain T52S it was inactive: 2.1; in assay [2] it was inactive: 2.09.
Consider LSAPWYLNRIS [HEXA_Y421], for which the enrichment score with SHP2 C-SH2 domain E139D is inactive: 1.3; in assay [1], inactive: 1.25; in the assay with SHP2 N-SH2 domain L43F it was inactive: 1.56; with SHP2 N-SH2 domain T42A it was inactive: 1.31; with SHP2 N-SH2 domain T52S, inactive: 1.64; in assay [2] it was inactive: 1.62.
On to CRPPFYHRNCM [HGD_Y334_F329C_YF], for which the enrichment score in the assay with SHP2 C-SH2 domain E139D is inactive: 2.9; in assay [1], inactive: 2.33; in the assay with SHP2 N-SH2 domain L43F, inactive: 2.64; in the assay with SHP2 N-SH2 domain T42A it was inactive: 2.06; with SHP2 N-SH2 domain T52S, inactive: 2.37; in assay [2], inactive: 2.09.
On to TFRPPYYHRNC [HGD_Y333], for which the enrichment score was inactive: 1.54 with SHP2 C-SH2 domain E139D; inactive: 1.38 in assay [1]; inactive: 1.22 in the assay with SHP2 N-SH2 domain L43F; inactive: 1.36 in the assay with SHP2 N-SH2 domain T42A; inactive: 1.6 with SHP2 N-SH2 domain T52S; inactive: 1.53 in assay [2].
As to CPFNLYAEQLS [HGD_Y40_YF], the enrichment score with SHP2 C-SH2 domain E139D is inactive: 1.23; in assay [1] it was inactive: 1.13; with SHP2 N-SH2 domain L43F, inactive: 0.903; with SHP2 N-SH2 domain T42A, inactive: 1.1; with SHP2 N-SH2 domain T52S it was inactive: 1.09; in assay [2], inactive: 1.63.
On to TFRPPYYHRDC [HGD_Y333_N337D], for which the enrichment score with SHP2 C-SH2 domain E139D was inactive: 2.33; in assay [1], inactive: 1.77; with SHP2 N-SH2 domain L43F, inactive: 2.14; with SHP2 N-SH2 domain T42A, inactive: 1.32; in the assay with SHP2 N-SH2 domain T52S it was inactive: 2.15; in assay [2] it was inactive: 1.8.
With CPYNLYAEQLS [HGD_Y40], the enrichment score was inactive: 1.09 with SHP2 C-SH2 domain E139D; inactive: 1.15 in assay [1]; inactive: 1.06 in the assay with SHP2 N-SH2 domain L43F; inactive: 0.887 with SHP2 N-SH2 domain T42A; inactive: 1.05 with SHP2 N-SH2 domain T52S; inactive: 1.16 in assay [2].
As to ILGLEYSLRLP [HELZ2_Y1304_V1308L], the enrichment score with SHP2 C-SH2 domain E139D is inactive: 1.43; in assay [1], inactive: 1.7; with SHP2 N-SH2 domain L43F, inactive: 1.83; with SHP2 N-SH2 domain T42A, inactive: 1.6; with SHP2 N-SH2 domain T52S it was inactive: 1.62; in assay [2], inactive: 1.77.
With GNLLIYTKFGK [HGD_Y166_E168K], the enrichment score with SHP2 C-SH2 domain E139D is inactive: 1.27; in assay [1], inactive: 2.42; with SHP2 N-SH2 domain L43F, inactive: 1.77; with SHP2 N-SH2 domain T42A it was inactive: 1.66; with SHP2 N-SH2 domain T52S it was inactive: 1.53; in assay [2], inactive: 2.7.
On to ENFSEYQEISV [HEMGN_Y150_A154S], for which the enrichment score with SHP2 C-SH2 domain E139D is inactive: 0.71; in assay [1], inactive: 0.693; with SHP2 N-SH2 domain L43F it was inactive: 0.865; with SHP2 N-SH2 domain T42A, inactive: 0.817; with SHP2 N-SH2 domain T52S, inactive: 0.711; in assay [2] it was inactive: 0.982.
In the case of CPYNLYAEQFS [HGD_Y40_L44F], the enrichment score with SHP2 C-SH2 domain E139D was inactive: 0.916; in assay [1], inactive: 0.939; in the assay with SHP2 N-SH2 domain L43F it was inactive: 0.897; in the assay with SHP2 N-SH2 domain T42A it was inactive: 0.936; in the assay with SHP2 N-SH2 domain T52S it was inactive: 0.886; in assay [2], inactive: 0.978.
Regarding CRPPYYHRNCM [HGD_Y334_F329C], the enrichment score was active: 4.31 with SHP2 C-SH2 domain E139D; inactive: 3.19 in assay [1]; active: 3.7 with SHP2 N-SH2 domain L43F; inactive: 3.01 with SHP2 N-SH2 domain T42A; active: 4.48 in the assay with SHP2 N-SH2 domain T52S; inactive: 2.85 in assay [2].
On to LSAPCYLNRIS [HEXA_Y421_W420C], for which the enrichment score is inactive: 1.12 in the assay with SHP2 C-SH2 domain E139D; inactive: 0.832 in assay [1]; inactive: 0.708 with SHP2 N-SH2 domain L43F; inactive: 0.598 with SHP2 N-SH2 domain T42A; inactive: 0.71 in the assay with SHP2 N-SH2 domain T52S; inactive: 0.958 in assay [2].
Regarding TCRPPYYHRNC [HGD_Y333_F329C], the enrichment score with SHP2 C-SH2 domain E139D was inactive: 0.683; in assay [1] it was inactive: 1.32; with SHP2 N-SH2 domain L43F it was inactive: 1.92; in the assay with SHP2 N-SH2 domain T42A it was inactive: 1.11; with SHP2 N-SH2 domain T52S it was inactive: 1.48; in assay [2], inactive: 0.934.
With FRPPYYHRNCM [HGD_Y334], the enrichment score with SHP2 C-SH2 domain E139D was active: 3.3; in assay [1] it was inactive: 2.47; with SHP2 N-SH2 domain L43F it was inactive: 3.15; with SHP2 N-SH2 domain T42A it was inactive: 2.43; in the assay with SHP2 N-SH2 domain T52S it was inactive: 3.09; in assay [2], inactive: 2.49.
Take HAKKNYGNSSV [HDX_Y197]: the enrichment score with SHP2 C-SH2 domain E139D is inactive: 0.5; in assay [1], inactive: 0.645; with SHP2 N-SH2 domain L43F, inactive: 0.781; with SHP2 N-SH2 domain T42A, inactive: 0.426; with SHP2 N-SH2 domain T52S, inactive: 0.706; in assay [2], inactive: 0.396.
